The values below come from PubChem BioAssay AID1508623 (National Center for Advancing Translational Sciences (NCATS), 2021).

The whole screen tested about 48,000 compounds, of which about 450 (0.94%) were called active. Not shown: some 19% with an inconclusive outcome. The call rests on the fitted dose curve; in most records, active means well fitted inhibition curve with a large enough effect; inconclusive means small, poorly fitted or top-dose-only effect; inactive means no such curve, though single readings can be large or run the other way. The list shows a part of the results.

A short description of this assay: Primary qHTS for Identification of Small Molecule Inhibitors of Huntingtin Promoter Activity. Further: nearly all actives have a fitted effect of over 50% in size. The settings on record: HEK293 HTT promoter firefly luciferase reporter (activity 0% = vehicle and -100% = no light), 24 h; series mostly up to 57.5 µM; activity change, negative = inhibition: at the top concentration. Summed up:
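HEK293 luciferase promoter-reporter cells (2,500/well) plated 24 h, then compounds added at up to 57.5 uM final for 24 h at 37 °C. Firefly luminescence by Dual-Glo, normalized to vehicle (0%) and zero RLU (-100%).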
Take `CCn1cc(C(=O)N(C)Cc2ccccc2)c(=O)c2cc(S(=O)(=O)N3CCCCCC3)ccc21`: the “activity change, negative = inhibition” value is inactive: -1.9%.

As for `Cc1cc(C)cc(OCC(=O)N(Cc2ccc(C)o2)C2CCS(=O)(=O)C2)c1` (configuration not stated), the “activity change, negative = inhibition” value was inactive: -13.8%.

Regarding `Cc1ccc(-c2nn3c(=O)cc(CN4CCN(C(=O)Nc5cc(Cl)ccc5C)CC4)nc3s2)cc1`, the “activity change, negative = inhibition” value was inactive: -16.2%.

As for `CCC(CC)C(=O)Nc1ccc2nc(SCC(=O)N3c4ccccc4CC3C)sc2c1` (configuration not stated), the “activity change, negative = inhibition” value is inactive: -21.9%.

For the compound `Clc1ccc(C(c2ccccc2Cl)C(Cl)Cl)cc1` (configuration not stated), the activity change, negative = inhibition result was “inactive”.

Consider `CCOC(=O)c1c(C)sc(-c2c(-c3ccc(OC)c(F)c3)[nH]c3c2c(=O)[nH]c(=O)n3C)c1O`, for which the “activity change, negative = inhibition” value was inactive: -24.8%.

Regarding `CC(C)Oc1ccc(CNC(=O)c2ccc3nc(Cc4ccccc4)oc3c2)cc1`, the “activity change, negative = inhibition” value is inactive: -29.2%.

As to `COc1ccc(Cl)cc1NC(=O)c1c(NCc2ccc(C)o2)sc2c1CCCC2`, the “activity change, negative = inhibition” value is inactive: -4.8%.

As for `Cc1ccc(CN(Cc2ccco2)C(=O)c2oc3c(C)c(C)ccc3c2C)cc1`, the “activity change, negative = inhibition” value is inactive: -26.8%.

Regarding `C=C1C(=CC=C2CCCC3(C)[C@@H]([C@H](C)C=CC=CC(O)(CC)CC)CC[C@@H]23)C[C@@H](O)C[C@@H]1O` (some centres not stated), the “activity change, negative = inhibition” value is inactive: -11.2%.

As for `COCCNC(=O)c1cc2c(Cl)nc3ccc(C)cc3c2s1`, the “activity change, negative = inhibition” value was inactive: 2.4%.

As to `COc1cccc(N(CC(=O)N2CCC(C)CC2)S(=O)(=O)c2ccc(C)cc2)c1`, the “activity change, negative = inhibition” value is inactive: -23.6%.

For `COc1cc(OC)c(Nc2ncnc3onc(-c4cccc(Cl)c4)c23)cc1Cl`, the “activity change, negative = inhibition” value was inactive: -16.7%.

As to `CCC(C)NC(=O)CSc1nc2cc3c(cc2c(=O)n1CCCC(=O)NCc1ccc2c(c1)OCO2)OCO3` (configuration not stated), the “activity change, negative = inhibition” value is inactive: -13.6%.

As for `CCCCOc1ccc(C2=NC(c3ccccc3)=Nc3ccc(OC)cc3N2)cc1`, the “activity change, negative = inhibition” value is inactive: 15.5%.

As for `Cn1c(=O)c2c(-c3ccccc3Br)n(CCc3ccccc3)cc2n(C)c1=O`, the “activity change, negative = inhibition” value was inactive: -14.8%.

Turning to `Clc1ccccc1Cc1cn2cc(-c3ccccc3)nc2s1`, the “activity change, negative = inhibition” value is inactive: -9.27%.

As for `O=C1O[C@H]([C@@H](O)CO)C(O)=C1O`, the “activity change, negative = inhibition” value was inactive: 5.8%.

Take `C=CCc1c(C)nc2nc(SCC(=O)Nc3ccc(OCC)cc3)nn2c1C`: the “activity change, negative = inhibition” value was inactive: 1.66%.

`Cc1cc(C)cc(NC(=O)C2(c3cccs3)CCOCC2)c1`: the “activity change, negative = inhibition” value was inactive: -4.06%.

In the case of `CC(C)c1ccc(Nc2ncnc3c2c(-c2ccccc2)cn3-c2ccccc2)cc1`, the “activity change, negative = inhibition” value is inactive: -11.9%.

For `COc1ccccc1NC(=O)CSc1nnc2c3ccccc3n(C)c2n1`, the “activity change, negative = inhibition” value was inactive: -9.31%.

On to `Clc1cccc(-n2ncc3c(N4CCN(Cc5ccccc5)CC4)ncnc32)c1`, for which the “activity change, negative = inhibition” value was inactive: -9.6%.

As for `COc1cccc(CNC(=O)Cn2ccc3cc(S(=O)(=O)N4CCC(C)CC4)ccc32)c1`, the “activity change, negative = inhibition” value is inactive: -17%.

Take `Cc1ccc(-c2nc3cccnc3s2)cc1NC(=O)Cc1ccccc1`: the “activity change, negative = inhibition” value is inactive: 50.5%.

As to `Cc1cccc(C)c1OCC(=O)N[C@@H](Cc1ccccc1)[C@@H](O)C[C@H](Cc1ccccc1)NC(=O)[C@H](C(C)C)N1CCCNC1=O`, the “activity change, negative = inhibition” value was inactive: -18.8%.

For `COc1ccc(NC(=O)Cn2ccn(-c3ccccc3)c(=O)c2=O)cc1`, the “activity change, negative = inhibition” value is inactive: -5.17%.

Consider `COc1ccccc1Nc1ncnc2c1nc1n2CCCC1`, for which the “activity change, negative = inhibition” value was inactive: 34.3%.

For `Cc1ccc(-n2nc(C)c3c(C(=O)Nc4ccc(Br)c(C)c4)cc(C)nc32)cc1`, the “activity change, negative = inhibition” value was inactive: -7.72%.

On to `COCCNC(=O)CSc1nc(-c2ccc(C)cc2)nc2c1c(=O)n(C)c(=O)n2C`, for which the “activity change, negative = inhibition” value was inactive: -6.19%.

For `COC(=O)C1=C(C)NC(=O)C1(NC(=O)c1ccccc1C)C(F)(F)F` (configuration not stated), the “activity change, negative = inhibition” value is inactive: -2.47%.

As to `COc1cccc(-c2nc(SCC(=O)N3CCc4ccccc43)c3c(=O)n(C)c(=O)n(C)c3n2)c1`, the “activity change, negative = inhibition” value was inactive: -0.553%.

For `COc1ccccc1NC(=O)c1c(NC(=O)c2ccccc2Cl)sc2c1CCC2`, the “activity change, negative = inhibition” value was inactive: 0.195%.

Regarding `CCOc1ccc(CNC(=O)CCCn2c(=O)c3cccn3c3ccc(F)cc32)cc1`, the “activity change, negative = inhibition” value is inactive: -0.103%.

For `Cn1c(=O)c(=O)n(C)c2cc(NC(=O)c3ccccc3Br)ccc21`, the “activity change, negative = inhibition” value is inactive: 3.1%.

In the case of `CC(=O)N1CCc2c(sc3c2c(=O)n(Cc2ccccc2)c(=O)n3CC(=O)Nc2ccc(C)c(F)c2)C1`, the “activity change, negative = inhibition” value was inactive: -24.1%.

On to `COc1ccc(CN2C(=O)C(NC(=O)c3ccccc3OC)(C(F)(F)F)N=C2c2ccccc2)cc1` (configuration not stated), for which the “activity change, negative = inhibition” value is inactive: -26.2%.

In the case of `CCc1ccc(NC(=O)CCn2cnc3ccccc3c2=O)cc1`, the “activity change, negative = inhibition” value is inactive: 1.67%.

Take `COc1ccccc1CNc1nc(-c2ccco2)nn1S(=O)(=O)c1ccc(Cl)cc1`: the “activity change, negative = inhibition” value is inactive: 29.8%.

In the case of `COc1cc(OC)c(NC(=O)Cn2c(=O)cc(C(F)(F)F)c3c(C)nn(C)c32)cc1Cl`, the “activity change, negative = inhibition” value was inactive: -4.47%.

On to `COCCNC(=O)C(=O)Nc1c2c(nn1-c1ccccc1)CS(=O)(=O)C2`, for which the “activity change, negative = inhibition” value is inactive: -3.89%.

Consider `CCc1ccccc1NC(=O)c1cnn2c(C(F)(F)F)cc(-c3ccc(OC)c(OC)c3)nc12`, for which the “activity change, negative = inhibition” value was inactive: -8.86%.

On to `COc1ccccc1OCc1ccc(C(=O)Nc2ccc(C)c(C)c2)o1`, for which the “activity change, negative = inhibition” value is inactive: -2.7%.

Regarding `CCOC(=O)c1cnn(-c2cccc(F)c2)c1C1CCNCC1`, the “activity change, negative = inhibition” value is inactive: -7.44%.

For the compound `Cc1cccc(NC(=O)Cn2nc(N3CCN(c4ccccc4)CC3)ccc2=O)c1C`, the “activity change, negative = inhibition” value is inactive: 1.96%.

Regarding `CCOc1ccc(CCNC(=O)Cn2nc(C)c3c(C)n(-c4ccccc4)nc3c2=O)cc1OCC`, the “activity change, negative = inhibition” value is inactive: -12.2%.

As to `CCOC(=O)c1c(C)sc(-c2c(-c3cc(C)ccc3C)[nH]c3c2c(=O)[nH]c(=O)n3C)c1O`, the “activity change, negative = inhibition” value is inactive: 9.57%.
